Results published in PubChem BioAssay AID504466 (National Center for Advancing Translational Sciences (NCATS), 2011).
Hit rate of the full screen: of about 330,000 compounds, about 4,200 (1.3%) were called active. Inconclusive results, whose numbers are uncertain, are shown with a selection of clear calls. Calls come from the whole dose curve; as a rule, active = well fitted activation curve with a large enough effect; inconclusive = small, poorly fitted or top-dose-only effect; inactive = no such curve, though single readings can be large or run the other way. Where the call is inconclusive, the potency comes from a doubtful curve fit.

Assay: qHTS screen for small molecules that induce genotoxicity in human embryonic kidney (HEK293T) cells expressing luciferase-tagged ELG1; note: nearly all actives have a fitted effect of over 60% in size; for activity change, positive = activation: % of control where 0% means no effect
Conditions: HEK293T ELG1-luciferase reporter, luminescence, 16 h; series mostly up to 46 µM; activity change, positive = activation: at the top concentration
How it was run: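 Genotoxicity was scored as increased ELG1-luciferase reporter signal, measured by ONE-Glo luminescence (30 min, room temperature). Compound or vehicle exposure of the HEK293T reporter cells lasted 16 hr at 37°C.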
Potency is the fitted concentration of half-maximal effect; tags give direction and shape of the fitted curve.

Q: Which Potency does the source give for `CN1CCN(c2ccc(-c3cccc(NC(=O)COc4ccc(Cl)cc4Cl)c3)nn2)CC1` here?
A: active: 0.651 µM

Q: For `CCOC(=O)c1c(SC)[nH]c2c(Cl)cccc2c1=O`, which “activity change, positive = activation” value is on record?
A: inactive: -0.562%

Q: For `COc1cc(CNc2cccc(C(=O)O)c2)cc(Br)c1OCC(=O)NC(C)(C)C`, which “activity change, positive = activation” value is on record?
A: inactive: 1.27%

Q: With `CC(=O)N1CCc2cc(Br)cc(S(=O)(=O)CCC(=O)Nc3c(C)n(C)n(-c4ccccc4)c3=O)c21` as the compound, how does the Potency read?
A: inconclusive: 2.91 µM [activator, full curve]

Q: Which “activity change, positive = activation” value does the source give for `O=C(Nc1cc(-c2nc3ccccc3s2)ccc1Cl)c1ccc2c(c1)OCO2` here?
A: inactive: 6.47%

Q: For `CCN(CC)c1ccc(/C=N/NC(=O)Cc2cccs2)c(O)c1`, which Potency is on record?
A: inconclusive: 29.1 µM [activator, single point]

Q: Which Potency does the source give for `C=CCN(c1ccccc1)S(=O)(=O)c1cccc(C(=O)NC2CCN(Cc3ccccc3)CC2)c1` here?
A: inconclusive: 6.51 µM [activator, single point]

Q: With `O=C(COc1ccccc1[N+](=O)[O-])N/N=C/c1cccc(OC(=O)c2ccc3c(c2)OCO3)c1` as the compound, how does the Potency read?
A: inconclusive: 6.51 µM [activator, partial curve, poor fit]

Q: Which Potency does the source give for `CCCC(C(=O)NC1CCCC1)N(C(=O)Cn1nnc(-c2ccc(C)o2)n1)c1ccccc1F` (stereo not drawn) here?
A: inconclusive: 16.4 µM [activator, partial curve, poor fit]

Q: For `CC(=O)c1ccc(OCc2ccccc2)c(C)c1O`, which Potency is on record?
A: inconclusive: 18.4 µM [activator, partial curve, poor fit]

Q: Which Potency does the source give for `CCCC(=O)N/C(N)=N/c1nc2ccccc2o1` here?
A: inconclusive: 2.59 µM [activator, full curve]

Q: For `CCCCn1c(=N)n(CC(=O)c2ccc([N+](=O)[O-])cc2)c2ccccc21`, which Potency is on record?
A: inconclusive: 29.1 µM [activator, single point]

Q: With `Cc1ccc(S(=O)(=O)NCCC(=O)NCC(=O)Nc2c(C)cccc2C)cc1C` as the compound, how does the “activity change, positive = activation” value read?
A: inactive: 0.0292%

Q: With `O=C(Cn1nnc(-c2ccc(OCc3ccccc3F)cc2)n1)N1CCOCC1` as the compound, how does the Potency read?
A: inconclusive: 16.4 µM [activator, partial curve, poor fit]

Q: Which Potency does the source give for `O=C(COc1ccc(Cl)cc1Br)Nc1ccncc1` here?
A: inconclusive: 5.8 µM [activator, partial curve, poor fit]

Q: With `O=C(CN(C(=O)CCC(=O)Nc1ccccn1)c1ccc(F)cc1)NCc1ccc(F)cc1` as the compound, how does the “activity change, positive = activation” value read?
A: inactive: -4.81%

Q: Which Potency does the source give for `Cc1cc2cc(CNC(=O)Nc3cccc(Cl)c3)ccc2n1C` here?
A: active: 23.1 µM

Q: With `CCOc1ccc(S(=O)(=O)n2cnc3cc(C)c(C)cc32)cc1` as the compound, how does the Potency read?
A: inconclusive: 23.1 µM [activator, partial curve, poor fit]

Q: For `CCCCOc1ccc(N(CC(=O)NC2CCCCC2)C(=O)CCC(=O)Nc2ccccn2)cc1`, which “activity change, positive = activation” value is on record?
A: inactive: -2.88%

Q: With `COc1ccc(CCNC(=O)CCCn2c(=O)[nH]c3cc(OC)c(OC)cc3c2=O)cc1OC` as the compound, how does the “activity change, positive = activation” value read?
A: inactive: 1.71%

Q: With `CC(C)(C)c1ccc(OCC(=O)N/N=C/c2ccsc2)cc1` as the compound, how does the “activity change, positive = activation” value read?
A: inactive: -0.481%

Q: With `Cc1cc(Cl)ccc1OCC(=O)Nc1cccc(S(=O)(=O)N2CCCC2)c1` as the compound, how does the “activity change, positive = activation” value read?
A: inactive: -5.11%

Q: With `O=C(Nc1ccc(SC(F)F)cc1)c1ccc2c(=O)n3c(nc2c1)CCC3` as the compound, how does the “activity change, positive = activation” value read?
A: inactive: 11%

Q: Which “activity change, positive = activation” value does the source give for `Cc1ccc(NC(=O)CN(C)C(=O)c2cc(S(=O)(=O)N(C)C)ccc2N2CCCC2)cc1` here?
A: inactive: -0.445%

Q: Which “activity change, positive = activation” value does the source give for `COc1ccc([C@H]2C=C3CN(C(=O)OC(C)(C)C)S(=O)(=O)[C@H]3C[C@H]2OC(=O)c2cccs2)cc1` here?
A: inactive: -3.96%

Q: With `COc1cccc(C(=O)COC(=O)c2cccs2)c1` as the compound, how does the Potency read?
A: inconclusive: 18.3 µM [activator, single point]

Q: With `O=C(NC1=NCCS1)C1COc2ccccc2O1` (stereo not drawn) as the compound, how does the Potency read?
A: inconclusive: 0.146 µM [activator, partial curve]

Q: Which Potency does the source give for `COc1ccc(N2Cc3ccccc3C2=NC(=O)c2cccc([N+](=O)[O-])c2)cc1` here?
A: inconclusive: 20.6 µM [activator, partial curve, poor fit]

Q: Which Potency does the source give for `NC1=NC(=Nc2ccc(Br)cc2)c2ccccc21` here?
A: inconclusive: 20.6 µM [activator, single point]

Q: For `O=S(=O)(/N=C(/Nc1nc2ccccc2s1)c1ccccc1)c1ccc(F)cc1`, which “activity change, positive = activation” value is on record?
A: inactive: 14.5%

Q: With `Cc1occc1C(=O)Nc1cccc(C(F)(F)F)c1` as the compound, how does the “activity change, positive = activation” value read?
A: inactive: 1.88%

Q: Which “activity change, positive = activation” value does the source give for `O=C(COc1ccccc1)NNc1c2ccccc2nc2ccccc12` here?
A: inactive: -0.127%

Q: Which “activity change, positive = activation” value does the source give for `CC(=O)N1CCN(C(=O)COC(=O)COc2ccc(C#N)cc2)CC1` here?
A: inactive: 0.33%

Q: Which Potency does the source give for `O=S(=O)(c1ccc(F)cc1)n1ccc(-c2cnc(-c3ccccc3)s2)n1` here?
A: inconclusive: 8.2 µM [activator, partial curve, poor fit]

Q: For `O=c1c(-c2cnn(-c3ccccc3)c2)coc2cc(O)ccc12`, which Potency is on record?
A: inconclusive: 2.31 µM [activator, partial curve]

Q: For `O=C(Nc1ccc(N2CCCC2)cc1)c1cccc(F)c1`, which Potency is on record?
A: active: 0.366 µM

Q: For `O=C(Nc1ccc(Cl)c(Cl)c1)C1CCN(C(=O)c2ccco2)CC1`, which “activity change, positive = activation” value is on record?
A: inactive: -1.82%

Q: Which Potency does the source give for `CC(C)Oc1ccc(C(=O)Nc2ccc(N(C)C)cc2)cc1` here?
A: active: 4.11 µM
